Test results: the supplement of paper PMC8728848
The other results are listed elsewhere or left out.

How the values were obtained:
Test in all cases: glycan array binding signal (z-score within array); higher = stronger binding
Settings in all cases: glycan notation: IUPAC condensed, linker removed
Fuc(a1-2)Gal = target: Fuc(a1-2)Gal
In short: (§1)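 The Consortium for Functional Glycomics database supplied 3228 glycan arrays, of which those lacking an available protein sequence were dropped. The binding signal, a within-array Z-score, was averaged across arrays of the same protein sequence and across linkers. Negative scores can be read as non-binding.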

Fuc(a1-2)Gal(b1-3)GalNAc = target: Fuc(a1-2)Gal(b1-3)GalNAc
In short: as §1

[1] = target: Fuc(a1-2)Gal(b1-3)GalNAc(a1-3)[Fuc(a1-2)]Gal(b1-4)Glc
In short: as §1

[2] = target: Fuc(a1-2)Gal(b1-3)GalNAc(a1-3)[Fuc(a1-2)]Gal(b1-4)GlcNAc
In short: as §1

[3] = target: Fuc(a1-2)Gal(b1-3)GalNAc(b1-3)Gal
In short: as §1

[4] = target: Fuc(a1-2)Gal(b1-3)GalNAc(b1-3)Gal(a1-4)Gal(b1-4)Glc
In short: as §1

[5] = target: Fuc(a1-2)Gal(b1-3)GalNAc(b1-4)[Neu5Ac(a2-3)]Gal(b1-4)Glc
In short: as §1

Fuc(a1-2)Gal(b1-3)GlcNAc = target: Fuc(a1-2)Gal(b1-3)GlcNAc
In short: as §1

[6] = target: Fuc(a1-2)Gal(b1-3)GlcNAc(b1-2)Man(a1-3)[Fuc(a1-2)Gal(b1-3)GlcNAc(b1-2)Man(a1-6)]Man(b1-4)GlcNAc(b1-4)GlcNAc
In short: as §1

[7] = target: Fuc(a1-2)Gal(b1-3)GlcNAc(b1-2)Man(a1-3)[Fuc(a1-2)Gal(b1-3)GlcNAc(b1-2)Man(a1-6)]Man(b1-4)GlcNAc(b1-4)[Fuc(a1-6)]GlcNAc
In short: as §1

[8] = target: Fuc(a1-2)Gal(b1-3)GlcNAc(b1-3)Gal(b1-4)Glc
In short: as §1

[9] = target: Fuc(a1-2)Gal(b1-3)GlcNAc(b1-3)GalNAc
In short: as §1

[10] = target: Fuc(a1-2)Gal(b1-3)GlcNAc(b1-3)[Fuc(a1-2)Gal(b1-3)GlcNAc(b1-6)]GalNAc
In short: as §1

[11] = target: Fuc(a1-2)Gal(b1-3)GlcNAc(b1-3)[Fuc(a1-3)[Gal(b1-4)]GlcNAc(b1-6)]Gal(b1-4)Glc
In short: as §1

[12] = target: Fuc(a1-2)Gal(b1-3)GlcNAc(b1-3)[Gal(b1-4)GlcNAc(b1-6)]Gal(b1-4)Glc
In short: as §1

[13] = target: Fuc(a1-2)Gal(b1-3)GlcNAc(b1-3)[Neu5Ac(a2-6)Gal(b1-4)GlcNAc(b1-6)]Gal(b1-4)Glc
In short: as §1

[14] = target: Fuc(a1-2)Gal(b1-3)GlcNAc6S
In short: as §1

[15] = target: Fuc(a1-2)Gal(b1-3)[Fuc(a1-4)]GlcNAc
In short: as §1

[16] = target: Fuc(a1-2)Gal(b1-3)[Fuc(a1-4)]GlcNAc(b1-2)Man(a1-3)[Fuc(a1-2)Gal(b1-3)[Fuc(a1-4)]GlcNAc(b1-2)Man(a1-6)]Man(b1-4)GlcNAc(b1-4)GlcNAc
In short: as §1

[17] = target: Fuc(a1-2)Gal(b1-3)[Fuc(a1-4)]GlcNAc(b1-2)Man(a1-6)[Fuc(a1-2)Gal(b1-3)[Fuc(a1-4)]GlcNAc(b1-2)Man(a1-3)]Man(b1-4)GlcNAc(b1-4)[Fuc(a1-6)]GlcNAc
In short: as §1

[18] = target: Fuc(a1-2)Gal(b1-3)[Fuc(a1-4)]GlcNAc(b1-3)[Fuc(a1-3)[Gal(b1-4)]GlcNAc(b1-6)]Gal(b1-4)Glc
In short: as §1

[19] = target: Fuc(a1-2)Gal(b1-3)[Fuc(a1-4)]GlcNAc(b1-3)[Gal(b1-4)GlcNAc(b1-6)]Gal(b1-4)Glc
In short: as §1

Fuc(a1-2)Gal(b1-4)Glc = target: Fuc(a1-2)Gal(b1-4)Glc
In short: as §1

Fuc(a1-2)Gal(b1-4)Glc6S = target: Fuc(a1-2)Gal(b1-4)Glc6S
In short: as §1

Fuc(a1-2)Gal(b1-4)GlcNAc = target: Fuc(a1-2)Gal(b1-4)GlcNAc
In short: as §1

[20] = target: Fuc(a1-2)Gal(b1-4)GlcNAc(b1-2)Man
In short: as §1

[21] = target: Fuc(a1-2)Gal(b1-4)GlcNAc(b1-2)Man(a1-3)[Fuc(a1-2)Gal(b1-4)GlcNAc(b1-2)Man(a1-6)]Man(b1-4)GlcNAc(b1-4)GlcNAc
In short: as §1

[22] = target: Fuc(a1-2)Gal(b1-4)GlcNAc(b1-2)Man(a1-3)[Fuc(a1-2)Gal(b1-4)GlcNAc(b1-2)Man(a1-6)]Man(b1-4)GlcNAc(b1-4)[Fuc(a1-6)]GlcNAc
In short: as §1

[23] = target: Fuc(a1-2)Gal(b1-4)GlcNAc(b1-2)[Fuc(a1-2)Gal(b1-4)GlcNAc(b1-4)]Man(a1-3)[Fuc(a1-2)Gal(b1-4)GlcNAc(b1-2)Man(a1-6)]Man(b1-4)GlcNAc(b1-4)GlcNAc
In short: as §1

[24] = target: Fuc(a1-2)Gal(b1-4)GlcNAc(b1-3)Gal(b1-4)GlcNAc
In short: as §1

B1: CIH1 (Colletotrichum higginsianum) (protein)
chain: LPQATPTTPTPTSASAAATISATSSPTCSPGPVIDYTVVSGDTLTIISQRFSSGICNIADASGITNPNFLSLGQVLQVPTYVCTPDNTSCLAKEGSDTCVEGGPATHTIVAGDTFFLVAQSLGLDVNALLAANEGVDPLLLQIGDVINIPVC
glycan array binding signal (z-score) (Fuc(a1-2)Gal): -0.065
glycan array binding signal (z-score) (Fuc(a1-2)Gal(b1-3)GalNAc): -0.071
glycan array binding signal (z-score) [1]: -0.062
glycan array binding signal (z-score) [2]: -0.055
glycan array binding signal (z-score) [3]: -0.08
glycan array binding signal (z-score) [4]: -0.071
glycan array binding signal (z-score) [5]: -0.071
glycan array binding signal (z-score) (Fuc(a1-2)Gal(b1-3)GlcNAc): -0.064
glycan array binding signal (z-score) [6]: -0.047
glycan array binding signal (z-score) [7]: -0.075
glycan array binding signal (z-score) [8]: -0.067
glycan array binding signal (z-score) [9]: -0.067
glycan array binding signal (z-score) [10]: -0.033
glycan array binding signal (z-score) [11]: -0.061
glycan array binding signal (z-score) [12]: -0.085
glycan array binding signal (z-score) [13]: -0.068
glycan array binding signal (z-score) [14]: -0.067
glycan array binding signal (z-score) [15]: -0.066
glycan array binding signal (z-score) [16]: 0.015
glycan array binding signal (z-score) [17]: -0.06
glycan array binding signal (z-score) [18]: -0.06
glycan array binding signal (z-score) [19]: -0.074
glycan array binding signal (z-score) (Fuc(a1-2)Gal(b1-4)Glc): -0.063
glycan array binding signal (z-score) (Fuc(a1-2)Gal(b1-4)Glc6S): -0.071
glycan array binding signal (z-score) (Fuc(a1-2)Gal(b1-4)GlcNAc): -0.08
glycan array binding signal (z-score) [20]: -0.068
glycan array binding signal (z-score) [21]: -0.085
glycan array binding signal (z-score) [22]: -0.072
glycan array binding signal (z-score) [23]: -0.061
glycan array binding signal (z-score) [24]: -0.075
